Measurements from article PMC7959344.

Columns and labels:
[1] = biological target: RRV 26–95 gH-V5/gL-Flag complex (rhesus monkey rhadinovirus (RRV) isolate 26–95)
[2] = biological target: RRV 26–95 gH-V5/gL-Flag complex (rhesus monkey rhadinovirus (RRV) isolate 26–95); remark: listed apart in the source

Question: “human full-length myc-tagged EphB3 (from UniProt P54753 34-998) (receptor)” was tested. Which cell-cell fusion (luciferase) of 293T cells expressing RRV 26–95 gH/gL/gB with hEphB3-Strep overexpressing Raji cells (Fig 6E) [1] did it give?
Answer: 129 fold

Question: How did the cell-cell fusion (luciferase) of 293T cells expressing RRV 26–95 gH/gL/gB with Raji-Gal4-Luc cells expressing Plxdc2-Strep, against control transfected 293T cells (Fig 6E) [1] turn out when “myc-tagged full-length human Plxdc2 (from UniProt Q6UX71-1 31-529) (receptor)” was run?
Answer: 45 fold

Question: How did the cell-cell fusion (luciferase) of 293T cells expressing RRV 26–95 gH/gL/gB with Raji-Gal4-Luc cells expressing Plxdc1-Strep, against control transfected 293T cells (Fig 6E) [1] turn out when “myc-tagged full-length human Plxdc1 (from UniProt Q8IUK5-1 19-500) (receptor)” was run?
Answer: 79 fold

Question: “soluble human Plxdc2, ectodomain (amino acids 31–453) fused to IgG1 Fc with a C-terminal tandem Strep-Tag (from UniProt Q6UX71-1 31-453) (Fc fusion)” was tested. Which inhibition of RRV-YFP wt infection of HaCaT cells by a concentration series of soluble hPlxdc2-FcStrep (Fig 4B) [2] did it give?
Answer: 60%
